The record followed here is the supplement of paper PMC10126150.

Values marked as one replicate rest on one cluster of the flow cell; about a third of the high ones do not repeat.

This series has as its system ATP. In words: switch fluorescence ratio, 500 uM ATP over buffer (Cy3 cluster intensity, sum of 5 cycles each) (fold (ratio)); higher = stronger signal-on switching upon ATP binding; sequences stand for … in TCGTCGGCAGCGTCAGATGTGTATAAGAGACAGTTTTTTTTTTTTTTTTTTTTTTTTT…TC. To be noted: aptamer strand: ATP DNA aptamer (quencher-CACCTGGGGGAGTATTGCGGAGGAAGG + anchor), 100 nM annealed; ATP concentration: 500 uM; one replicate. In a few lines:
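Switching-strand clusters labelled with Cy3 on a modified Illumina MiSeq flow-cell were annealed to 100 nM quencher-labelled ATP aptamer, imaged in selection buffer, and re-imaged after 15 min with 500 uM ATP at 22 °C. This was done over five cycles with NaOH stripping and re-annealing in between. The fluorescence ratio is summed target-cycle over summed buffer-cycle Cy3 intensity per cluster, averaged per switch-domain sequence, excluding clusters outside 100-1000 RFU.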
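Also: ATP exposure 15 min at 22 °C before imaging.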

Regarding AGTGTTGGGA, the switch fluorescence ratio worked out at 0.986.

In the case of CAGACAAAC, the switch fluorescence ratio was determined as 1.2.

Turning to TGTAAGGCTA, the switch fluorescence ratio turned out to be 1.01.

With CCTGATATCT, the switch fluorescence ratio amounted to 0.995.

On to GGTTGTTGAC, for which the switch fluorescence ratio came to 0.969.

Regarding ATGGTTCTTG, the switch fluorescence ratio came out at 1.01.

For AGCGTGACGG, the switch fluorescence ratio was 1.01.

With ATTGCTGACA, the switch fluorescence ratio was determined as 0.995.

As for GGAAGGCGT, the switch fluorescence ratio was determined as 1.03.

For the sequence TTACCTGGGA, the switch fluorescence ratio amounted to 1.01.

On to TCAGCAACCC, for which the switch fluorescence ratio amounted to 2.23.

For the sequence GAAGAGGTGA, the switch fluorescence ratio turned out to be 0.942.

On to CATTAGTAGT, for which the switch fluorescence ratio worked out at 0.995.

Take CTTCCTTGTG: the switch fluorescence ratio was determined as 1.13.

With ATGGCATTTT, the switch fluorescence ratio is 1.02.

Consider GGCCTGGCAC, for which the switch fluorescence ratio is 1.01.

CGGGCTTCAC: the switch fluorescence ratio is 1.01.

As for TTGATTTCA, the switch fluorescence ratio came out at 1.

ATTGGCGTCG: the switch fluorescence ratio was 1.

Turning to CTTACGTTTT, the switch fluorescence ratio is 0.979.

Take TGGCATTTG: the switch fluorescence ratio was 1.04.

On to GCAGGATCAA, for which the switch fluorescence ratio amounted to 0.992.

In the case of TCCATATATT, the switch fluorescence ratio came out at 0.992.

Consider TCGCTAAACA, for which the switch fluorescence ratio amounted to 1.02.

Consider GCGTCCTTTC, for which the switch fluorescence ratio came out at 1.12.

Take TCATACTAAG: the switch fluorescence ratio turned out to be 1.06.

Take GTTATCCCTA: the switch fluorescence ratio is 1.01.

In the case of TCTTAAGAAT, the switch fluorescence ratio worked out at 0.928.

With GACAACTTGC, the switch fluorescence ratio worked out at 1.01.

Take TAAGGACCTG: the switch fluorescence ratio is 0.923.

As for AGTTAGCTAG, the switch fluorescence ratio came out at 1.01.

As for CATCCAATC, the switch fluorescence ratio is 1.72.

Consider GGGCATCCG, for which the switch fluorescence ratio amounted to 1.01.

CGGTTCTCAT: the switch fluorescence ratio came out at 0.98.

In the case of ATCCAAAGAT, the switch fluorescence ratio came out at 0.976.

Consider TTTCACCGCT, for which the switch fluorescence ratio turned out to be 1.03.

Take TAAACTCTCG: the switch fluorescence ratio is 0.977.

TCTTGTTCAG: the switch fluorescence ratio was determined as 0.986.

As to CCCGTTAAA, the switch fluorescence ratio turned out to be 1.01.

As for CTTAGGCAGT, the switch fluorescence ratio amounted to 0.998.

As for ATGAGGATCA, the switch fluorescence ratio came out at 0.96.

On to TGTTTGGAAA, for which the switch fluorescence ratio stood at 0.936.

As for TAGCATGAGT, the switch fluorescence ratio turned out to be 0.968.

On to GGTACACAAA, for which the switch fluorescence ratio turned out to be 0.96.

Consider TTTCTTAATG, for which the switch fluorescence ratio was determined as 0.985.

Regarding CGAATGTTTC, the switch fluorescence ratio amounted to 1.04.

As to TCCGTTCTTT, the switch fluorescence ratio was 1.05.

GGTAAGTACT: the switch fluorescence ratio was 1.16.

For the sequence GGATTCCGAG, the switch fluorescence ratio amounted to 1.11.

Consider GATCAGGGGA, for which the switch fluorescence ratio was found to be 1.03.

With TTCGGAGGGG, the switch fluorescence ratio is 1.22.

In the case of AGTGTACGGC, the switch fluorescence ratio is 1.06.

CCCGCAGGTA: the switch fluorescence ratio was 1.91.

Consider ATGCGGCGCT, for which the switch fluorescence ratio was 1.02.

Consider AAGATATCA, for which the switch fluorescence ratio came out at 0.985.

Turning to TATTGAGGCT, the switch fluorescence ratio is 1.

Consider TCCGACAGAT, for which the switch fluorescence ratio amounted to 2.49.

On to TGTGGTTCCG, for which the switch fluorescence ratio is 1.

CCAGGGGGCG: the switch fluorescence ratio worked out at 0.976.

Consider CCGCTTTGGG, for which the switch fluorescence ratio was determined as 1.24.

CAGGTTGTAA: the switch fluorescence ratio was 0.975.

Consider GGGGCTTCCT, for which the switch fluorescence ratio was 1.38.

As for ACAGTAATCC, the switch fluorescence ratio came out at 1.15.

In the case of ATATACGTAG, the switch fluorescence ratio was 1.03.

Take AGGAATGTCA: the switch fluorescence ratio turned out to be 0.962.

Regarding ATCAGTACG, the switch fluorescence ratio worked out at 1.01.

As for GGCCCAGAGC, the switch fluorescence ratio was 1.02.
